The record followed here is PMC4336329 (PLoS ONE, 2015).

The structures appear in SMILES notation. The whole screen tested about 310,000 compounds, of which about 14,000 (4.5%) showed an effect of 50% or more. Effects have a minus sign here. The list shows a part of the results.
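Also: peak tail current of the secondary pulse compared with the same well before compound.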

In the test the target is human ether-à-go-go-related gene (hERG) potassium channel (human, UniProt Q12809). The test is described as follows: primary screen, population patch clamp on CHO cells stably expressing hERG.
Chain of human ether-à-go-go-related gene (hERG) potassium channel (Q12809 whole entry, looked up): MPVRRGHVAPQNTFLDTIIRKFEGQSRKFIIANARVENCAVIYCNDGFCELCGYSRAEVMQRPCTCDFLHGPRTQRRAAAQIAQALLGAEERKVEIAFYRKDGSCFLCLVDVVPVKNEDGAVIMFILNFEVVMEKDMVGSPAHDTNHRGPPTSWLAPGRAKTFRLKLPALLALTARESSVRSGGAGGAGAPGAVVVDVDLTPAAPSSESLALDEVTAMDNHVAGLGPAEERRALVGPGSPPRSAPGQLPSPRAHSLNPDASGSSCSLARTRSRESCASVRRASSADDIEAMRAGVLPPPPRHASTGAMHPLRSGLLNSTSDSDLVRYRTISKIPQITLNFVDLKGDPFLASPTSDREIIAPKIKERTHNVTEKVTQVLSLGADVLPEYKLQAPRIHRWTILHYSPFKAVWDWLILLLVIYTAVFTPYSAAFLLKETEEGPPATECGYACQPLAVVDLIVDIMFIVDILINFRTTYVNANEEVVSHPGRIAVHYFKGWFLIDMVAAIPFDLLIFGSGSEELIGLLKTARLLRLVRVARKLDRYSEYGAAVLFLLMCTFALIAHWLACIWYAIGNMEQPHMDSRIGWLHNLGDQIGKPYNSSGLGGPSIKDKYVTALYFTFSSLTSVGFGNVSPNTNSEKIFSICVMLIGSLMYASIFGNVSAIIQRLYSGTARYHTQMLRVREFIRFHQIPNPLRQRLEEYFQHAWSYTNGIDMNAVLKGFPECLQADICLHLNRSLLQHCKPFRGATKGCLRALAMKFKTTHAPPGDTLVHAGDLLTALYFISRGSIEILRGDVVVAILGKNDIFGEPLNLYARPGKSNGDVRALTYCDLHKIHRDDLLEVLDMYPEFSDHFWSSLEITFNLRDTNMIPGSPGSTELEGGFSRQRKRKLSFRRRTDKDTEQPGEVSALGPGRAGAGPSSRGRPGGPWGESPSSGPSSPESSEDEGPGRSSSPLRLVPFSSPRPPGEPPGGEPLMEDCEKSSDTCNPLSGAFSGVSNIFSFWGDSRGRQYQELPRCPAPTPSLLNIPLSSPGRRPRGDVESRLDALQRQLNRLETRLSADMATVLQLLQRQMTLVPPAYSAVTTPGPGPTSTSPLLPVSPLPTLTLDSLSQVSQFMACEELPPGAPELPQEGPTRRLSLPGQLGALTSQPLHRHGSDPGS
Consider `O=C(N=C1SC2CS(=O)(=O)CC2N1Cc1ccccc1)C1CCCCC1` (stereo not shown), for which the “hERG current change (%, negative = inhibition) at 10uM” value amounted to 13.4%. Regarding `O=C(CSc1ccc(-c2ccccc2)nn1)NC1CCCC1`, the “hERG current change (%, negative = inhibition) at 10uM” value is recorded as 0.303%. The value for `CCCC(=O)c1c(O)[nH]c(=O)[nH]c1=O` was 4.71%. For `Cc1nc(CNS(=O)(=O)c2cccc(F)c2)cs1`, the “hERG current change (%, negative = inhibition) at 10uM” value worked out at 3.53%. The value for `CCOC(=O)c1c(C)[nH]c(N=Nc2cc(C(=O)O)cc(C(=O)O)c2)c1C` was -4.88%; that for `Cc1ccc(Nc2cc(-n3cccn3)ncn2)c(C)c1` was -6.92%. With `N#C/C(=C\c1ccc(Cl)cc1Cl)c1n[nH]c(Cn2cncn2)n1`, the “hERG current change (%, negative = inhibition) at 10uM” value is listed as -2.22%. Regarding `CCOC(=O)N1CCC(N2C(=O)c3ccccc3C2Nc2ccccc2)CC1` (stereo not shown), the “hERG current change (%, negative = inhibition) at 10uM” value is -9.74%. Regarding `CSc1sc(C(=O)NNC(C)=O)c2c1C1(CCC2)SCCS1`, the “hERG current change (%, negative = inhibition) at 10uM” value is listed as 2.57%. For the compound `Cc1cccc(C(=O)Oc2ccc(/C=N/NC(=O)c3cc(O)cc(O)c3)cc2)c1`, the “hERG current change (%, negative = inhibition) at 10uM” value is reported as 18.6%. The value for `CC(=O)Nc1ccc(Sc2ncccc2C(=O)Nc2ccc(F)cc2)cn1` was 13.9%; that for `O=C(c1ccccc1Br)N1CCC(c2nc3ccccc3s2)CC1` was -35.1%; that for `CC(C)Oc1ccc(/C=C/C(=O)NCC2COc3ccccc3O2)cc1` (stereo not shown) was -2.55%. The value for `CN(CC1COCCO1)c1nc2nonc2nc1N1CCSCC1` (stereo not shown) was -0.507%; that for `CCCCN1C(=O)CN(CCc2ccccc2)C(=O)C1c1ccc(OC)cc1` (stereo not shown) was -13.5%; that for `CCCCN1C(=O)C(O)(CC(=O)c2ccccn2)c2ccccc21` (stereo not shown) was 1.42%.

For the compound `COc1cc(C2OC(=O)C3C(c4ccc(OC(C)=O)c(OC)c4)OC(=O)C23)ccc1OC(C)=O` (stereo not shown), the “hERG current change (%, negative = inhibition) at 10uM” value is recorded as 20.8%. The value for `Cn1cnnc1SCC(=O)Nc1ccc2ccccc2c1` was 2.21%; that for `Cc1cc(C)nc(N(C#N)CC(=O)N2CCC(C(N)=O)CC2)n1` was 20.1%; that for `COc1ccccc1N1CC(C(=O)Nc2ccc(S(=O)(=O)N3CCOCC3)cc2)CC1=O` (stereo not shown) was 10.2%. The value for `COCOc1ccc(/C=C2/Oc3cc(OCOC)cc(OCOC)c3C2=O)c(OCOC)c1` was 13%; that for `COc1cccc(NS(=O)(=O)c2cn(C)c(=O)n(C)c2=O)c1` was 6.07%. For `Cc1ccc(C)c(OCc2cc(C(=O)N3CCC(N4CCCC(O)C4)CC3)no2)c1` (stereo not shown), the “hERG current change (%, negative = inhibition) at 10uM” value was -42.6%.

`O=C(NC(=S)Nc1ccc(S(=O)(=O)N2CCCCC2)cc1)c1ccccc1`: the “hERG current change (%, negative = inhibition) at 10uM” value is 3.97%.

As to `CC1(C)CC(=O)C2=C(C1)OC(N)=C(C#N)C2c1cccs1` (stereo not shown), the “hERG current change (%, negative = inhibition) at 10uM” value is reported as -1.81%.

`Cc1ccc(C)c(Cn2nnc3c(=O)[nH]c(C(=O)NCc4ccco4)nc32)c1`: the “hERG current change (%, negative = inhibition) at 10uM” value was -13.3%. In the case of `CC(C)c1ccc(/C=C/C(=O)NC2CCCCC2)cc1`, the “hERG current change (%, negative = inhibition) at 10uM” value was -3.16%. Turning to `Cc1ccc(O)c(-c2[nH]ncc2C(=O)c2ccc(Br)cc2)c1`, the “hERG current change (%, negative = inhibition) at 10uM” value was -6.23%. As to `Nc1ccc(C(=O)Nc2nc3ccccc3s2)cc1`, the “hERG current change (%, negative = inhibition) at 10uM” value worked out at 9.9%. As to `COc1ccc(OC)c(S(=O)(=O)N2CCN(C(=O)c3ccco3)CC2)c1`, the “hERG current change (%, negative = inhibition) at 10uM” value is 16.6%. Take `COc1ccc(/C=N/NC(=O)c2[nH]c3ccc(C)cc3c2-c2ccccc2)c(C(=O)O)c1OC`: the “hERG current change (%, negative = inhibition) at 10uM” value was determined as 21.2%.

Take `COc1ccccc1CNC(=O)CS(=O)Cc1nc(-c2ccc(OC)c(OC)c2)oc1C` (stereo not shown): the “hERG current change (%, negative = inhibition) at 10uM” value is listed as -6.47%. For `COCCSc1nnc(NC(=O)C2CC(=O)N(c3ccc(OC)cc3)C2)s1` (stereo not shown) the value was 6.35%; for `O=C(OCC(=O)N1CCOCC1)c1cc(F)c(F)cc1Cl`, -1.44%. Consider `Cc1cc(-c2nnc(CCC(=O)N(CC3CC3)CC3CCCO3)o2)no1` (stereo not shown), for which the “hERG current change (%, negative = inhibition) at 10uM” value is 10.9%. Turning to `Cc1nc2cc3ccccc3cc2c(=O)[nH]1`, the “hERG current change (%, negative = inhibition) at 10uM” value was -16%. For `Clc1ccc(-c2csc(NNC3=NCCCCC3)n2)cc1`, the “hERG current change (%, negative = inhibition) at 10uM” value was found to be 5.17%.

`Cc1cc(C)nc(SCC(=O)Nc2ncccn2)n1`: the “hERG current change (%, negative = inhibition) at 10uM” value is given as 23.3%.

For `Cc1ccc(OCC(=O)N2CCOCC2)c([N+](=O)[O-])n1`, the “hERG current change (%, negative = inhibition) at 10uM” value worked out at 29.1%. For `O=C(N/N=C/c1sc(N2CCOCC2)nc1-c1ccccc1)c1cccc(S(=O)(=O)N2CCCC2)c1` the value was 29.6%; for `C[C@H](NC(=O)c1nc[nH]c1C(=O)N(C)Cc1ccccc1)C(=O)OC(C)(C)C`, 5.67%; for `C[C@@H](C(=O)Nc1ccc2ccccc2c1)[C@H]1C[C@]1(C)[C@H](NS(=O)(=O)c1ccc(-c2ccccc2)cc1)c1ccccc1`, -6.75%.

Consider `CCN(CC)CCC(O)(c1ccccc1)C1CCCCC1` (stereo not shown), for which the “hERG current change (%, negative = inhibition) at 10uM” value was -3.58%. Turning to `Cc1cc(C)cc(-n2nnnc2SCC(=O)Nc2cccc(NC(=O)c3ccco3)c2)c1`, the “hERG current change (%, negative = inhibition) at 10uM” value was found to be 0.456%. On to `COc1ccc(OC)c(NC(=O)CN2C(=O)NC(C)(c3ccc4c(c3)OCCO4)C2=O)c1` (stereo not shown), for which the “hERG current change (%, negative = inhibition) at 10uM” value came to 0.589%. For the compound `CN1CCCN(C(=O)/C=C/c2ccc(F)cc2)CC1`, the “hERG current change (%, negative = inhibition) at 10uM” value is -23.7%. In the case of `O=S(=O)(c1ccc(NC(=S)N2CCN(c3ccc(O)cc3)CC2)cc1)N1CCOCC1`, the “hERG current change (%, negative = inhibition) at 10uM” value was 2.83%. For the compound `COc1ccc(/C(O)=C/c2nc3ccccc3n(-c3ccccc3)c2=O)cc1`, the “hERG current change (%, negative = inhibition) at 10uM” value is 8.38%. As to `O=C(O)c1cc(NS(=O)(=O)c2ccc(NCc3ccccc3)c([N+](=O)[O-])c2)cc(C(=O)O)c1`, the “hERG current change (%, negative = inhibition) at 10uM” value is 20.9%. In the case of `COc1ccc(CN(C)C(=O)Cn2ccc(N)nc2=O)cc1OC`, the “hERG current change (%, negative = inhibition) at 10uM” value is listed as 23.2%.

Regarding `O=C(COC(=O)c1cccnc1Cl)Nc1ccc2c(c1)OCCO2`, the “hERG current change (%, negative = inhibition) at 10uM” value is -11%.

Regarding `CCCCN(C(=O)C(C)N1C(=O)c2ccccc2C1=O)c1c(N)n(CC(C)C)c(=O)[nH]c1=O` (stereo not shown), the “hERG current change (%, negative = inhibition) at 10uM” value was 20.1%. On to `O=C1C(=O)c2ccccc2-c2ccccc21`, for which the “hERG current change (%, negative = inhibition) at 10uM” value is 0.909%. With `CCN(c1ccccc1)S(=O)(=O)c1ccc(C(=O)NCCCN2CCOCC2)cc1`, the “hERG current change (%, negative = inhibition) at 10uM” value was -2.47%. In the case of `CCCCn1c(N)c(N(CC(C)C)C(=O)c2cccc(S(=O)(=O)N3CCN(C(C)=O)CC3)c2)c(=O)[nH]c1=O`, the “hERG current change (%, negative = inhibition) at 10uM” value is listed as -17.3%.
